Experimental data reported in the supplement of paper PMC3334620.
Over roughly 33,000 sequences, “E-score (-0.5 to 0.5)” has its median near -0.032; the highest 2% begin near 0.36. This is one part of the list.

Biological target: T1, Sko1 (UniProt Q02100)
T1 sequence: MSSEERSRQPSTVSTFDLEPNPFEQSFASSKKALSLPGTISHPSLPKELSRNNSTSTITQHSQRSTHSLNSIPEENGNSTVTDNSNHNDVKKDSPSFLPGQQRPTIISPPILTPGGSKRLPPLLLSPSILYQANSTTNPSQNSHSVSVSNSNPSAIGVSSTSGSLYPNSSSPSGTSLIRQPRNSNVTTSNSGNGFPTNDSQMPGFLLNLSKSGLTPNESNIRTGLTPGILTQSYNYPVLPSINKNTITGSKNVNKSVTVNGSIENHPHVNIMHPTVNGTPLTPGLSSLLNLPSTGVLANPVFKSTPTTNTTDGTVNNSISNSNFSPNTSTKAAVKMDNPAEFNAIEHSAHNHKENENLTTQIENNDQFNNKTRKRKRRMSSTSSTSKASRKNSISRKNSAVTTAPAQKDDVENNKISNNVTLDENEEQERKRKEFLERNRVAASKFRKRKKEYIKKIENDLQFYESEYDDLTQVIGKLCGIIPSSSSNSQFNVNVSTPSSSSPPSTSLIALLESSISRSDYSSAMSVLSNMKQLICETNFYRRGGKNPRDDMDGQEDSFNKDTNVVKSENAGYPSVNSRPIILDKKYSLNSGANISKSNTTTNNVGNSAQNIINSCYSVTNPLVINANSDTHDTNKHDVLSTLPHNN
Assay: PBM E-score (8-mer binding enrichment) (E-score (-0.5 to 0.5)); higher = stronger / more preferred TF binding; most listed sequences are background and not binding sites
Conditions: protein concentration: 200 nM; construct: GST-full length
Procedure, shortened: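 Universal all-10-mer Agilent arrays, double-stranded by primer extension on fresh or once-stripped slides, were probed with about 100-200 nM GST-tagged yeast transcription factors made by PURExpress. Fluorescent anti-GST detected bound protein, and masliner normalised the scans. E-scores from the Universal PBM Analysis Suite were given to each ungapped eight-base word pooled with its reverse complement.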

Sequence	PBM E-score
TGCCTACA	0.0278
GTGGTTAA	0.205
GCGGGGAC	-0.124
CGTCGTGC	0.252
AGGTATAA	0.113
AATGTAAA	0.212
GTTAGCTA	-0.089
GCAGACAC	-0.0387
ATCAAATG	0.0548
CCGGAATA	-0.219
GTTAAGCA	0.0113
AGAATGCA	-0.077
CGGCATGC	-0.133
ACCTATCA	-0.0258
CACGGCGG	-0.156
CTATACGA	0.178
ACCTAGTA	-0.121
AAGATAAG	0.094
TTCTGCAA	0.101
ATATGCTC	-0.0515
ATACGCAT	0.375
CCTGGTCA	-0.302
AAGGCCCA	-0.201
AGATCGTG	-0.0762
CACGCATG	0.112

Sequence	PBM E-score
AATCATCT	0.0757
CATACCGA	0.0409
CCCCCAGC	-0.26
AAGACTTA	0.1
AACCGAAA	0.0754
AGTCTGCC	-0.276
AGACCTGC	-0.219
GGTCCCAA	-0.28
CGACTGGA	-0.12
AAGCAGGA	-0.0742
CCATATGG	-0.164
TCTGCCAA	-0.00328
GGCCTTAA	-0.037
AGACGATA	0.203
AATGCGGA	-0.0239
TACCGGTA	-0.219
GGGCTGTA	-0.267
ATGTGACC	-0.0234
ATGAGAGA	-0.0294
CTGAGTCA	-0.144
AACCAAGT	0.0302
ACAGTAAC	0.0433
GGCACGCA	-0.00979
CCCCTAGC	-0.318
CACTGCTA	-0.0848

Sequence	PBM E-score
ACGCGGGG	-0.0423
AACTAGTG	-0.0641
CGTCCGAG	-0.0998
AGACCTAG	-0.163
CAATCCTA	-0.0963
AGTCGGGG	-0.234
GGCTGACC	-0.264
ATAGGCGA	-0.138
CGTTAGTA	0.223
GATAACCA	0.0246
CGGTCTAC	-0.118
AACAATCG	-0.0271
TCGGAGAA	-0.123
CGACGAGC	-0.187
ACTGGGGC	-0.259
CCTTAAGC	-0.259
AGGACATG	-0.0582
TCGAGCAA	-0.0374
CGGACTTA	-0.227
GCAGGCGA	-0.131
GACAGGTC	-0.272
CAGCGTTA	0.0932
TAAATAAA	0.288
ACTAAGTA	0.0919
AGGTATGC	0.118

Sequence	PBM E-score
AAGGGCGC	-0.15
CCGGCCAC	-0.334
CATCTACC	-0.142
ATAGTGCG	0.126
AACACGGA	0.0312
CAAAAATG	-0.0501
CCTGACGC	0.0655
AAAGGTTG	-0.231
AGGACAGG	-0.345
CTATTTGA	0.175
AACTAGGA	-0.0576
GAAGATAC	0.131
TAATGTCA	0.214
CCCACCCA	-0.00995
AGTATTAT	0.1
AACTATGG	-0.192
GCTAGGCC	-0.184
AGAACTTC	-0.185
ACCAGAGA	-0.163
GTTAACGA	0.0836
CAGCTGGA	-0.103
ACTGGACG	0.109
GCACTAAA	-0.0221
GGCGAATA	-0.0732
GGAGTCAA	-0.134

Sequence	PBM E-score
AGATTGTC	-0.0423
CTCGTTAC	0.107
TATGTCGA	0.193
CTCTGCGA	0.00177
AAATACGT	0.463
AACGAACG	0.0486
CTTGTCTA	0.127
AAGGCTCC	-0.295
CCGACCCC	-0.155
AGATCCCA	-0.104
AGACGCTC	-0.268
CTATCACC	-0.232
CTTCTTGA	0.0494
CTTTACAA	0.0299
CTCAAGGA	-0.267
AAGCGCTG	-0.0191
AAGACCTC	-0.31
TCAGCCGA	-0.104
ACCCATAG	-0.25
CCTCGCTA	-0.169
CTGTTACA	-0.119
GCAGGACA	-0.165
ACCCGTTA	-0.127
AAATAAGA	0.124
ATATAAGA	0.274

Sequence	PBM E-score
CCGCTCGC	-0.151
CAATGCTA	-0.027
CGTTTGCA	0.182
CTGTCGAA	-0.12
CAAGGAAC	-0.138
AGGCCAAA	-0.106
AAGATTCG	0.203
GCTTAAGA	-0.00071
AAAGCAAG	-0.0433
AGTGATAA	0.143
AGCTAACG	0.173
TCAGGCAA	-0.129
ATGCAGAC	-0.106
CCCATGAA	-0.16
CGGAGCTC	-0.233
CTTCCAAA	0.0466
ACTTAGAT	0.176
GGACATAC	-0.0701
AACAAATG	0.237
CCTTTTAC	-0.0204
AGTAAAAC	0.0445
ACTGCCGC	-0.224
CGTGCATC	0.193
CCCGCGAA	-0.16
ATCGTAAG	0.234

Sequence	PBM E-score
GAAGATCC	-0.307
AACGTTTG	0.133
CAGCTAGA	-0.0116
AGATAACA	0.145
GTGCTCTA	-0.084
CATAGAAC	-0.15
CCGATACA	-0.0168
CCCTCTGC	-0.34
ATGCTGCG	-0.165
AATGGCGG	-0.3
CTCAAACC	-0.225
AATCGGTC	-0.239
CCATCTTA	0.00443
CACAGTAG	-0.0266
CGAGGGAG	-0.369
ACTAGTTG	-0.195
GTACAGAC	0.086
AGTCTGCA	-0.232
AAGTCTGG	-0.0103
ATCATATG	0.247
CAGCAGCA	-0.172
GATAACGA	0.268
GACTCGCA	-0.153
ATGTAGAG	0.0634
ATCCATCG	-0.193

Sequence	PBM E-score
CACAATGA	0.167
CAAAATTG	0.0476
CCCTCTAG	-0.109
AGTCGGGA	-0.184
AACCCGGC	-0.161
GACTGCGC	-0.199
TAGGGGCA	-0.101
CTTTAAAC	-0.0658
CGGATGAA	0.0556
GCTCTTCA	-0.356
CATACTCA	0.0384
ATAAAACA	0.221
ACCTCGTA	0.13
CGCCACAC	0.0843
CCATAGCA	-0.107
AGAGAAGG	-0.386
ATTGAATC	-0.00848
ATTTCACG	0.0368
AGACTAAG	0.052
GAGCTTGA	-0.156
CGGAACCC	-0.252
ACCTGCTA	-0.0628
AGTTGAGG	-0.166
ACTTATCC	0.0171
AAGGTTTC	-0.132

Sequence	PBM E-score
GCCTGGAC	-0.194
ACCTACCA	-0.118
CGAGAGGC	-0.26
AGGTCGCG	-0.153
GCGTCTAA	-0.00774
AAATACTC	0.065
ATGGCGGG	-0.242
CGCTAGAA	-0.147
CGGCAGCA	-0.195
GCGCTTAA	-0.00633
CGACTTCC	0.00337
TCGTGGCA	0.0698
GCCTTTCA	-0.117
GGAGTCAC	-0.0997
GTCCGCAA	-0.112
ATGGCAGG	-0.281
AGACAAGG	-0.211
ACTATGAA	0.11
ATGGGCGA	-0.123
